# Measured values as given in article PMC12136788.
# The other results are listed elsewhere or left out.
# T1: UNK ZnF1-3 (human, UniProt Q9C0B0 31-174)
# T1 sequence: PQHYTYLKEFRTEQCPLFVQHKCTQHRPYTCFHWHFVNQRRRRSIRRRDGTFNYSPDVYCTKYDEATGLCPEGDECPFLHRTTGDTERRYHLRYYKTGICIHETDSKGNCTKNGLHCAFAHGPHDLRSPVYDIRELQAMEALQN
# B1: 122550611_122550731_2855_CDS_ENSMUSG00000020124_ENSMUST00000020334|mouse|control|control (ssRNA)
# RNA: GGGAGUUCUACAGUCCGACGAUCGCUGUCUUCGUCACUUUCCAGGGGGAUACCUGUGGCAGCUGAAGCACCUUUAGUUUCUCGGUCAAGAGGGAAGAAGCCAGUCCCACUGAAAGUGUCCUGUCUCUGGUAGAAGAGCACGUACAACAGAGGAUUGAGCAUCA
# B2: chr9:21333030:21333031:-_ENSG00000198642_ENST00000537938|hu_mus|motif|central (ssRNA)
# RNA: GGGAGUUCUACAGUCCGACGAUCAAGGGGAUGAACAAGACCACCCAUGAUACACUGAAAAGGUAUUACACCUUGGAUCGGAGAAUGAUCUGAAGGUGCUGAAAGAGGUGAUUCUCUAGAAGGUGACCCAGGGUUUUCUUCAGGCAACAGAGGAUUGAGCAUCA
# B3: 24495524_24502816_505_CDS_ENSG00000112294_ENST00000357578|human|control|control (ssRNA)
# RNA: GGGAGUUCUACAGUCCGACGAUCUCUGGCAAGGUCAUCCUUAUUUUGUAUCAUUAAAUUGUACCACUUCCGAAGUAAUGAACUCCUCUCCUUGGCGGAGACCUCCCUCCAGCGGCAGAAAGCCUCGUAGGCAGCGCGCACGGCCAACAGAGGAUUGAGCAUCA
# B4: chr1:235506153:235506154:+_ENSG00000152904_ENST00000391855|hu_hu|motif|central (ssRNA)
# RNA: GGGAGUUCUACAGUCCGACGAUCCUACUCACCUAUUUACUGUUUCUGGAGAAUAACAAAUUUUUUAAAAGGUGGUAAGGCGGAAAGACAAAAAAAAGAUUAACUAAAAUAAGCUAUGAGGUCCAAUCAAGAAUGGCUUAACAUCAACAGAGGAUUGAGCAUCA
# B5: 119723044_119728423_141_5pUTR_ENSMUSG00000033943_ENSMUST00000110774|mouse|control|control (ssRNA)
# RNA: GGGAGUUCUACAGUCCGACGAUCCUGUUUCUCUUCCAUGAUUCCAGUGAGAAAUUCAGUAGUAAGAAAACUGUAGUCAAUUCAUAGUUACAAAUGCUUUUUCAUCCGUGCGGGGCGUGGCCGGCCUCACCCCGAGUCCUUCACCAACAGAGGAUUGAGCAUCA
# B6: chr14:76904430:76904431:+_ENSMUSG00000022010_ENSMUST00000022587|mus_mus|mus_mus_mus_hu_True|18_28 (ssRNA)
# RNA: GGGAGUUCUACAGUCCGACGAUCUGCAGCCAAAAACACCCUCGUGGAAAAAAAGAGGGAACACCAGCAGCCUUGUAUAAGCUAGAUAAAAUCUUCUGGCUUUCCGCAGCUCAGGGCGUGAGAACGGACGGCAGCCCUAAUUUACAACAGAGGAUUGAGCAUCA
# B7: 53442044_53449486_251_CDS_ENSG00000072501_ENST00000322213|human|control|control (ssRNA)
# RNA: GGGAGUUCUACAGUCCGACGAUCCAGGGUCUUUACCCGCAGGUUGCUGGUUUUUUCACCUAGCACAAAGCUGAUGGCAUCCAUGAGAUUUGACUUACCAGAGCCAUUGGGUCCAAUGAUGGCGGUGAACCUCUGAAAUGGUCCCAACAGAGGAUUGAGCAUCA
# B8: chr1:65217810:65217811:-_ENSMUSG00000025950_ENSMUST00000097709|mus_mus|FALSE|FALSE (ssRNA)
# RNA: GGGAGUUCUACAGUCCGACGAUCAGCCUCUGCAGCAUCUUUGGUGACCUGGUCAUUGGUGGCAUCACGAUUCUCUAUGCCUAAAUCAUAGCUAUGCAGAUCCAGUUCCACAUAGGGAAGAAUAAGUUUUUCCUUAAUCAAUUCCAACAGAGGAUUGAGCAUCA
# B9: chr8:95500983:95500984:-_ENSG00000164944_ENST00000437199|hu_hu|hu_hu_hu_mus_True|38_68 (ssRNA)
# RNA: GGGAGUUCUACAGUCCGACGAUCAGAACACAUCUAUCGAGUAAAGGACCGUACAUGACGGCCUCUAACCACUGCCUCACUAACAAACUUUCCUCUCUGAGCCUCCAUGCCGCUAUUUGUACUAGCCCAGGACGGUCCCAGGCCCAACAGAGGAUUGAGCAUCA
# B10: chr1:66829163:66829164:+_ENSG00000184588_ENST00000423207|hu_mus|FALSE|FALSE (ssRNA)
# RNA: GGGAGUUCUACAGUCCGACGAUCCACGUCAGCAGCAUGCAGGCUGUUGUGAUAUGCCACAUCAGAAUGGUAAUGGUCUUCUAAAGUCAUCAUGUAGGUUACAAAGGUGUCAGAUGAGAUUUUAAACGUCUUCAGAAGGUCUCUCAACAGAGGAUUGAGCAUCA
# B11: chr6:41757443:41757444:+_ENSG00000214736_ENST00000398881|hu_mus|hu_hu_hu_mus_False|38_88 (ssRNA)
# RNA: GGGAGUUCUACAGUCCGACGAUCGAACCGUGCAGAGGCAACAUCUCGGAAUUCUGCGGGGGAUGGGGGGGCAGUGGGGGGGGGUUCAGGCAAGGAGAAGAAAAGUGCUUCAGCUGCCACUCAGGUAGGAUCUUGUGGUCACAGCAACAGAGGAUUGAGCAUCA
# B12: chr15:77794528:77794529:-_ENSMUSG00000016554_ENSMUST00000100484|mus_mus|FALSE|FALSE (ssRNA)
# RNA: GGGAGUUCUACAGUCCGACGAUCGGUGGUGACGGUGUGAAAGAUGCGCUUGAUGCUCCGCAGGGGCUUCUCACUCCUUGUGGUGAUGCGGUCAAAGGCUUUGUCGUAGUACUCCAGGGCUCCGCAGCACUCGAUGUCUUGAGGCAACAGAGGAUUGAGCAUCA
# B13: 38547764_38547884_4359_CDS_ENSG00000131747_ENST00000423485|human|control|control (ssRNA)
# RNA: GGGAGUUCUACAGUCCGACGAUCUGCUGUCUUCUUCACUGUCACAUUCUUUUUAGGAACUGGGUUUGUAAUUUCAGUUUCAUCUGGGAAAUGUGUAGCAGGAGGGCUUGAAGACAGUGGUACACUGCCCUUAACAUCAUCAGCCAACAGAGGAUUGAGCAUCA
# B14: chr12:35831226:35831227:+_ENSMUSG00000020590_ENSMUST00000048519|mus_hu|FALSE|FALSE (ssRNA)
# RNA: GGGAGUUCUACAGUCCGACGAUCAUACCAGAAGACAUAAAGCCUCUUCAUGUAUAUAUUCAUAUAUGCAAUAAAUGCAUUAAAUGUAACUUUAUUAAACAUAGUACACUGUACUUGACUUAUGGUUAAAUAUUUUACACACAGCAACAGAGGAUUGAGCAUCA
# Molecular target: T1, UNK ZnF1-3
# Experiment: nsRBNS (natural sequence RNA bind-n-seq); RBNS binding buffer (assumed for nsRBNS): 25 mM Tris pH 7.5, 150 mM KCl, 3 mM MgCl2, 0.01% Triton X-100, 500 ug/ml BSA, 20 U/ml SUPERase-In, 4 C; UNK is unkempt and MSI1 is Musashi-1; names of the RNAs are library labels; protein concentration not given here; high values mean tight binding
row,Binder,binding signal [enrichment R]
1,B1,1.01
2,B2,1.02
3,B3,1.12
4,B4,3.18
5,B5,0.904
6,B6,1.64
7,B7,0.701
8,B8,1.12
9,B9,1.1
10,B10,0.752
11,B11,2.58
12,B12,0.906
13,B13,0.596
14,B14,1.05
